Laboratory results as given in IntAct's records for PubMed 25502805.

B1: Myeloid differentiation primary response protein MyD88 (Homo sapiens), Q99836 (parent)
chain: MAAGGPGAGSAAPVSSTSSLPLAALNMRVRRRLSLFLNVRTQVAADWTALAEEMDFEYLEIRQLETQADPTGRLLDAWQGRPGASVGRLLELLTKLGRDDVLLELGPSIEEDCQKYILKQQQEEAEKPLQVAAVDSSVPRTAELAGITTLDDPLGHMPERFDAFICYCPSDIQFVQEMIRQLEQTNYRLKLCVSDRDVLPGTCVWSIASELIEKRCRRMVVVVSDDYLQSKECDFQTKFALSLSPGAHQKRLIPIKYKAMKKEFPSILRFITVCDYTNPCTKSWFWTRLAKALSLP
partner: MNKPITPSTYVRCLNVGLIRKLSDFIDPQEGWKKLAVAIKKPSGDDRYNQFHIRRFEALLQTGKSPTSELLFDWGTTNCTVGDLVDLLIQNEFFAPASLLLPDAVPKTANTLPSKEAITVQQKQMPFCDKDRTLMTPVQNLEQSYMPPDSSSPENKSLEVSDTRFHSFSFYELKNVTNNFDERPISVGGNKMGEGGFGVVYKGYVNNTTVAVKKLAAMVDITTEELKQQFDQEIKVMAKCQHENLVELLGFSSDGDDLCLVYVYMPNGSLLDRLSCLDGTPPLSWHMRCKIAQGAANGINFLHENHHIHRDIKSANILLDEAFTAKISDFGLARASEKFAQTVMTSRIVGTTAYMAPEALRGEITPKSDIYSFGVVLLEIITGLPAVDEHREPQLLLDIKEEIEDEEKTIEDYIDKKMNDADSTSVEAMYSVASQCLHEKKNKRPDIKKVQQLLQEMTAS

Variants of: B1
Details: with irak4_human IRAK4, Q9NWZ3
In the case of L93P, the “effect of a mutation on the interaction” value is reported as “disrupting interaction strength”. In the case of R196C, the “effect of a mutation on the interaction” value is reported as “disrupting interaction strength”.
